Cell viability data for 43 sequences are collected here from the supplement of paper PMC8948288.

Series [1] deals with H4. Put plainly: cell viability relative to siNT1 (ATP content); H4 human neuroglioma and GL261 mouse glioma; higher = less toxic. The conditions noted are these: siRNA concentration 10 nM; 96 h; human. How it is done: (§1)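 Arrayed screen of all 4096 6mer seeds. Each seed sits at guide-strand positions 2-7 of a neutral 19mer siRNA backbone (siNT1-based, passenger strand 2'-O-methyl modified at positions 1-2 to block RISC loading, 3' DNA overhangs). The guide strand is built here as U + seed + ACAUGUAAACCA. Cells were reverse transfected in triplicate in 384-well plates (H4 at 10 nM, GL261 at 25 nM) with Lipofectamine RNAiMAX. Viability was read as ATP content (CellTiter-Glo) 96 h after transfection and normalised to siNT1 (%).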

In series [2] the test system is GL261. The description is as above. The conditions noted are these: siRNA concentration 25 nM; 96 h; mouse. How it is done:
as §1

Shown are siRNA guide strands that differ only in the seed, positions 2 to 7.
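Further: cells reverse transfected with siRNA duplexes via lipid reagent, ATP read by luminescence, triplicate wells, values scaled to mean viability with non-targeting control siNT1.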

A word on the cell viability: it is a read-out of living cells in per cent, often relative to untreated cells. UAACCCGACAUGUAAACCA: the cell viability in series [1] came out at 121%; in series [2], 59.2%.
Taken in the same sequence, the figures for UAACCCUACAUGUAAACCA were 81.1% and 53.6%.
In the same order, the values of UAACCGAACAUGUAAACCA are 106% and 55.8%.
For UAACCGCACAUGUAAACCA, the cell viability worked out at 87.5% in series [1] and 66.6% in series [2].
Take UAACCGGACAUGUAAACCA: the cell viability is 89.6% in series [1] and 44% in series [2].
UAACCGUACAUGUAAACCA: the cell viability in series [1] worked out at 90.1%; in series [2], 61.2%.
In the same order, the values of UAACCUAACAUGUAAACCA are 94% and 63.1%.
For UAACCUCACAUGUAAACCA, the cell viability in series [1] amounted to 90.9%; in series [2], 18.4%.
For UAACCUGACAUGUAAACCA, the cell viability amounted to 102% in series [1] and 50.1% in series [2].
Taken in the same sequence, the figures for UAACCUUACAUGUAAACCA were 102% and 55%.
In the same order, the values of UAACGAAACAUGUAAACCA are 119% and 58%.
As to UAACGACACAUGUAAACCA, the cell viability in series [1] amounted to 110%; in series [2] it was 40.4%.
As for UAACGAGACAUGUAAACCA, the cell viability in series [1] was 116%; in series [2] it was 60.4%.
Taken in the same sequence, the figures for UAACGAUACAUGUAAACCA were 117% and 56.5%.
As for UAACGCAACAUGUAAACCA, the cell viability in series [1] worked out at 98.1%; in series [2], 47.1%.
Regarding UAACGCCACAUGUAAACCA, the cell viability in series [1] was 91.8%; in series [2], 59.1%.
As to UAACGCGACAUGUAAACCA, the cell viability was 105% in series [1] and 63.6% in series [2].
Turning to UAACGCUACAUGUAAACCA, the results for the cell viability in series [1] and in series [2] were 118% and 56.1%, respectively.
Consider UAACGGAACAUGUAAACCA, for which the cell viability in series [1] stood at 111%; in series [2] it was 48.3%.
Consider UAACGGCACAUGUAAACCA, for which the figures for the cell viability in series [1] and in series [2] were 82.4% and 16.6%, respectively.
In the same order, the values of UAACGGGACAUGUAAACCA are 81.4% and 51.8%.
For UAACGGUACAUGUAAACCA, the cell viability turned out to be 92% in series [1] and 29.8% in series [2].
In the same order, the values of UAACGUAACAUGUAAACCA are 86.8% and 80.3%.
Taken in the same sequence, the figures for UAACGUCACAUGUAAACCA were 98.9% and 53.2%.
In the same order, the values of UAACGUGACAUGUAAACCA are 118% and 58%.
For UAACGUUACAUGUAAACCA, the values for the cell viability in series [1] and in series [2] were 111% and 73.9%, respectively.
With UAACUAAACAUGUAAACCA, the values for the cell viability in series [1] and in series [2] were 84.5% and 67.1%, respectively.
As to UAACUACACAUGUAAACCA, the cell viability came to 106% in series [1] and 48.2% in series [2].
Taken in the same sequence, the figures for UAACUAGACAUGUAAACCA were 113% and 57%.
As to UAACUAUACAUGUAAACCA, the cell viability in series [1] turned out to be 116%; in series [2] it was 78%.
In the same order, the values of UAACUCAACAUGUAAACCA are 121% and 40.2%.
UAACUCCACAUGUAAACCA: the cell viability turned out to be 69.5% in series [1] and 18.8% in series [2].
In the same order, the values of UAACUCGACAUGUAAACCA are 95.6% and 32.9%.
Taken in the same sequence, the figures for UAACUCUACAUGUAAACCA were 71.7% and 26.1%.
Turning to UAACUGAACAUGUAAACCA, the cell viability in series [1] was 104%; in series [2] it was 56.6%.
Taken in the same sequence, the figures for UAACUGCACAUGUAAACCA were 65.7% and 22.6%.
Taken in the same sequence, the figures for UAACUGGACAUGUAAACCA were 58.5% and 38.9%.
On to UAACUGUACAUGUAAACCA, for which the values for the cell viability in series [1] and in series [2] were 83.5% and 19.2%, respectively.
As for UAACUUAACAUGUAAACCA, the cell viability in series [1] amounted to 111%; in series [2] it was 58.3%.
In the same order, the values of UAACUUCACAUGUAAACCA are 76% and 36.3%.
In the same order, the values of UAACUUGACAUGUAAACCA are 98.5% and 58.9%.
In the same order, the values of UAACUUUACAUGUAAACCA are 107% and 57.2%.
In the case of UAAGAAAACAUGUAAACCA, the cell viability in series [1] was 114%; in series [2], 60.3%.
